# Values joined by “and” are separate entries in the source; they are usually repeats but may differ in a detail not shown here. Identical values can stand only once. Screen size: about 1,500 compounds; about 100 (6.7%) were called active. Not shown: some 7% with an inconclusive outcome. Calls follow the shape of the dose curve; as a rule, active = well fitted inhibition curve with a large enough effect; inconclusive = small, poorly fitted or top-dose-only effect, or effect the other way; inactive = flat fitted curve, though single readings scatter. The list shows a part of the results.
# Target: Runt-related transcription factor 1 (Homo sapiens) + Core-binding factor subunit beta (Homo sapiens) (UniProt Q01196+Q13951)
# Chain of UniProt Q01196 (Q01196 whole entry, looked up): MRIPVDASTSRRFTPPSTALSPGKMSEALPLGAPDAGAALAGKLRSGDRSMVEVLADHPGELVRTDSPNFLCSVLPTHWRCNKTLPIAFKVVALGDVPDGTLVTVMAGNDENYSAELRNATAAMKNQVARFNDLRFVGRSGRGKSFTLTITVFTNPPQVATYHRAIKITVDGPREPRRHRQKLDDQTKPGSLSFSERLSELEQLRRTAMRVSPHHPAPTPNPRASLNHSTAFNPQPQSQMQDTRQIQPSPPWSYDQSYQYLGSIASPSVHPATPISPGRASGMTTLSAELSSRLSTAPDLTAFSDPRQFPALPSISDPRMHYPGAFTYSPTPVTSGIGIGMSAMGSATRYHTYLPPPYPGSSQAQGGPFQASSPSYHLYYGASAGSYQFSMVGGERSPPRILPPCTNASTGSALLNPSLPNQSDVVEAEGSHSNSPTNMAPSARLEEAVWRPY
# Chain of UniProt Q01196 (Q13951 whole entry, looked up): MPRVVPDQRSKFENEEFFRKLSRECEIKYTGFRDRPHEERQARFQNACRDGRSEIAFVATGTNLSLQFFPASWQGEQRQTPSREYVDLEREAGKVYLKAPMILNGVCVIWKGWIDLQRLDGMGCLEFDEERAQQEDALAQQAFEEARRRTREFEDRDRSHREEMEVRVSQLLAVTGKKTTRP
# Assay: qHTS Assay for Compounds Blocking the Interaction Between CBF-beta and RUNX1 for the Treatment of Acute Myeloid Leukemia: Hit Validation; also: nearly all actives have a fitted effect of over 60% in size
# Details: AlphaScreen CBFb-His/RUNX1-biotin binding; series mostly up to 59.8 µM; activity, negative = inhibition: at the top concentration
# Procedure, shortened: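 AlphaScreen proximity assay: His-tagged CBF-beta and biotinylated RUNX1 (30 nM each) preincubated 20 min, then compound 15 min, then nickel and streptavidin beads 90 min, all at room temperature; signal read at […]em 440 nm.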
# % is scaled to controls: 0 for no effect and ±100 for the full control effect; potency is read from the fitted curve at half-maximal effect.
Structure (SMILES),"activity, negative = inhibition",Potency
O=C(/C=C/c1ccccc1)Nc1cccnc1Oc1ccccc1F,inactive: -4.55%,
O=S(=O)(Nc1cccc(CCc2ccccn2)c1)c1cc(Cl)ccc1Cl,inactive: -7.59%,
Nc1ccc2nc3c(=O)[nH]c(=S)[nH]c3nc2c1,,active: 2.51 µM
O=C(Oc1c(-c2ccccc2)c(=O)n2c3c(cccc13)CC2)c1ccccc1,inactive: -1.65%,
Brc1cc(Br)cc(CN2CCSCC2)c1,inactive: 0.277%,
Cc1cc2c3ccccc3ncn2n1,inactive: -1.64%,
Cc1nc([N+](=O)[O-])cn1CC(O)c1ccccc1 (centres undefined),inactive: 0.256%,
c1ccc2c(c1)Nc1ccncc1S2,inactive: 7.18%,
Cc1nnsc1C(=O)N/N=C/c1ccccc1Cl,inactive: 1.58%,
COc1ccc(OC)c(-c2c3cc(O)c(=O)cc-3oc3cc(O)c(O)cc23)c1,,active: 2.24 µM
CCOc1ccc(Nc2nc(N)nc(CSC(=S)N3CCOCC3)n2)cc1,inactive: -12.1%,
Cc1cc(N2CCOCC2)n2ncc(-c3ccc(Cl)cc3)c2n1,inactive: -1.58%,
CC1=NNC(=O)C1Cc1ccc(F)cc1 (centres undefined),inactive: -5.63%,
CCOC(=O)C1=C(O)C(=O)N(C2CCCCC2)C1,inactive: -4.13%,
CCCCCCCC1(C)NC(=O)NC1=O (centres undefined),inactive: 2.95%,
O=C(CNC(=O)C(c1ccccc1)c1ccccc1)N/N=C\c1cccc(O)c1,inactive: -1.65%,
Cc1ccc(-n2ncc(-c3nn[nH]n3)c2N)cc1,inactive: -2.4%,
COc1ccc(/C=C/C(=O)NCCc2nc3ccccc3[nH]2)cc1,inactive: 3.93%,
O=C(CCC(=O)N1CCN(c2ccc(O)cc2)CC1)c1ccc(Br)cc1,inactive: -7.61%,
COc1ccccc1NC(=O)Nc1sccc1-c1nc2ccccc2s1,inactive: -17.1%,
COc1ccc(NC(=O)C2=NNC(=O)CC2)cc1S(=O)(=O)N1CCCCC1,inactive: -0.84%,
Cc1cccc(CC(=O)c2c[nH]c3ccccc23)c1,inactive: -8.61%,
CC(C)C1N(C(N)=S)N=CC1(C)C (centres undefined),inactive: -1.01%,
COC(=O)c1ccccc1N=Nc1c(C)n[nH]c1C,inactive: 2.67%,
CC(C)(C)N1CCC1C(N)=O (centres undefined),inactive: 12.6%,
Cc1cc(OCC(=O)c2cccc(C(F)(F)F)c2)n2cnnc2n1,inactive: 1.34%,
CC(C)(C)c1ccc(C(=O)Nc2ccc(S(N)(=O)=O)cc2)cc1,inactive: 7.64%,

Structure (SMILES),"activity, negative = inhibition",Potency
Cc1ccc2c(N)c(C(=O)c3ccccc3)sc2n1,inactive: 5.79%,
Cc1ccc2nc(C)c3c(c2c1)N(c1ccccc1)CC3,inactive: -1.02%,
Cc1nn(C)c(=O)c(N)c1-c1cc(-c2ccc(Cl)c(Cl)c2)n[nH]1,inactive: -0.481%,
Cc1cc2c(NS(=O)(=O)c3ccc(F)cc3)cccc2nn1,inactive: -8.4%,
COC(=O)C(=Cc1ccccc1[N+](=O)[O-])C(=O)OC,inactive: -2.17%,
COC(=O)c1ccc(Cn2cc([N+](=O)[O-])cn2)cc1,inactive: -7.08%,
Clc1ccc(Nc2ccc(Cl)nn2)cc1,inactive: 2.4%,
Cc1ccc(-c2c[n+](CC(=O)Nc3ccccc3C)c3n2CCC3)cc1,inactive: -1.35%,
CC(C)CC(=O)Nc1nnc(CSCc2ccc(F)cc2)s1,inactive: -0.201%,
COc1ccc(C2CN=NC23CCc2ccccc2C3=O)cc1 (centres undefined),inactive: -7.55%,
Cc1cccc(C)c1NC(=S)N/N=C/c1ccc(C(=O)O)cc1,inactive: -14.8%,
c1ccc(-c2n[nH]c(-c3ccccn3)n2)nc1,,active: 1 µM and active: 708 nM
Cc1ccc(Oc2ncccc2N)c2c1CCC2,inactive: -11.1%,
CC(Cc1c[nH]c2ccccc12)C(=O)O (centres undefined),,active: 12.2 µM
Nc1nc(-c2ccccc2)c(N=Nc2ccc(Cl)cc2)s1,,active: 13.7 µM
CC1CCC2(CC1)NC(=S)N(C(C)(C)C)N2 (centres undefined),inactive: -1.9%,
O=C(/C=C/c1ccccc1Cl)Nc1ccccc1,inactive: -0.892%,
CC(C)[C@H](NC(=O)OC(C)(C)C)C(=O)N/N=C/c1ccc2nccnc2c1,inactive: -2.34%,
CCC(=O)Nc1cccc(C(=O)OC)c1,inactive: -8.54%,
COc1ccc(CC(=O)n2[nH]c(=O)ccc2=O)cc1OC,inactive: -9.02%,
O=C1N=C(N2CCc3ccccc3C2)S/C1=C\c1ccc(O)cc1,inactive: -21.5%,
Nc1cc2ccncc2c2ccccc12,inactive: 5.33%,
O=S(=O)(Nc1ccc(C(F)(F)F)cn1)c1ccccc1,inactive: -0.888%,
COC(=O)c1ccc(Cn2nc([N+](=O)[O-])c(Br)c2C)cc1,inactive: -9.01%,
O=C(NCCC1CC1(Cl)Cl)Nc1ccccc1 (centres undefined),inactive: 1.9%,
COc1ccccc1C(=O)N1CCC(N2CCN(c3ccccc3OC)CC2)CC1,inactive: -14.2%,
C/C(O)=C(\C#N)P(=O)(c1ccccc1)c1ccccc1,inactive: 10.4%,

Structure (SMILES),"activity, negative = inhibition",Potency
CCOC(=O)N1CCC(NS(=O)(=O)c2ccc(C#N)cc2)CC1,inactive: -5.68%,
Cc1ccc(OCc2ccc(C(=O)NN)o2)c([N+](=O)[O-])c1,inactive: 1.59%,
COc1ccc(/C=C2\CCc3c2nc2ccccc2c3C(=O)O)cc1OC,inactive: -24.1%,
Cc1cc(C)n(-c2cc(C(C)(C)C)nc3c(-c4ccccc4)cnn23)n1,inactive: 2.38%,
CC(C)(C)OC(=O)N[C@@H](Cc1ccccc1)c1nnc(SCC(N)=O)o1,inactive: -5.88%,
O=C(CCC(=O)N1CCN(c2ccc(O)cc2)CC1)c1cccs1,inactive: 4.81%,
O=C(Nc1ccc(F)cc1)OCCOc1ccc(Br)cc1,inactive: 8.93%,
Nc1c(Cl)ncnc1N/N=C/c1ccncc1,inactive: -3.76%,
CN=c1scc(-c2ccccc2F)n1/N=C/c1ccc(O)c(O)c1O,,active: 6.87 µM
NS(=O)(=O)c1ccc(Sc2ccccn2)c([N+](=O)[O-])c1,inactive: 3.17%,
CC1(C)CCSC(/C=C/c2ccccc2)=N1,inactive: 2.11%,
Nc1nc(NCc2ccco2)nc(NCCO)c1[N+](=O)[O-],inactive: -2.4%,
O=S(=O)(Nc1ccc(Cl)cc1)c1ccc2c(c1)CCO2,inactive: -10.5%,
COc1ccc2c(c1)CCN1C2CCN2C(=O)CCC21 (centres undefined),inactive: -1.49%,
C/C(Cc1nnn(-c2cc(C)on2)n1)=N\O,inactive: -0.472%,
CC(=O)NNC(=S)Nc1cccc(F)c1,inactive: -2.31%,
c1ccc(Nc2nnc(-c3cccc4ccccc34)o2)cc1,inactive: -9.74%,
NNC(=O)c1ccc(COc2ccc3ccccc3c2)o1,inactive: -4.05%,
COc1cccc(/C=N/n2nnnc2N)c1,inactive: -2.12%,
COc1ccc(C(=O)COc2ccc(C)cc2NC(C)=O)cc1,inactive: 2.19%,
Cc1ccc(Cn2c(N/N=C/c3ccncc3)nc3c2c(=O)n(C)c(=O)n3C)cc1,inactive: -3.34%,
COc1ccccc1C1=NOC(COc2ccc3c(C)cc(=O)oc3c2)C1 (centres undefined),inactive: -3.77%,
C#CCSc1nc(=O)c2cccnc2n1-c1ccc(C)cc1,inactive: 0.897%,
CCCc1cc(=O)c2ccc(OCC(C)=O)cc2o1,inactive: -1.17%,
COC(CNc1ccc([N+](=O)[O-])c(NCC(OC)OC)c1C#N)OC,inactive: -5.85%,
